Measurements as given in article PMC6664820, “Novel natural and synthetic inhibitors of solute carriers SGLT1 and SGLT2” (Pharmacology Research & Perspectives, 2019).
About 40 (2%) of roughly 1,900 compounds showed an effect of 50% or more. The list shows a part of the results. Residues, ends and D or L forms follow the SMILES beside them.

What follows are molecules tested against human SGLT1 (hSGLT1) (human, UniProt P13866) (assay: primary screen, percent of control activity; higher = less effect of the substance). Conditions: 50 µM.
Chain of human SGLT1 (hSGLT1) (P13866 whole entry, looked up): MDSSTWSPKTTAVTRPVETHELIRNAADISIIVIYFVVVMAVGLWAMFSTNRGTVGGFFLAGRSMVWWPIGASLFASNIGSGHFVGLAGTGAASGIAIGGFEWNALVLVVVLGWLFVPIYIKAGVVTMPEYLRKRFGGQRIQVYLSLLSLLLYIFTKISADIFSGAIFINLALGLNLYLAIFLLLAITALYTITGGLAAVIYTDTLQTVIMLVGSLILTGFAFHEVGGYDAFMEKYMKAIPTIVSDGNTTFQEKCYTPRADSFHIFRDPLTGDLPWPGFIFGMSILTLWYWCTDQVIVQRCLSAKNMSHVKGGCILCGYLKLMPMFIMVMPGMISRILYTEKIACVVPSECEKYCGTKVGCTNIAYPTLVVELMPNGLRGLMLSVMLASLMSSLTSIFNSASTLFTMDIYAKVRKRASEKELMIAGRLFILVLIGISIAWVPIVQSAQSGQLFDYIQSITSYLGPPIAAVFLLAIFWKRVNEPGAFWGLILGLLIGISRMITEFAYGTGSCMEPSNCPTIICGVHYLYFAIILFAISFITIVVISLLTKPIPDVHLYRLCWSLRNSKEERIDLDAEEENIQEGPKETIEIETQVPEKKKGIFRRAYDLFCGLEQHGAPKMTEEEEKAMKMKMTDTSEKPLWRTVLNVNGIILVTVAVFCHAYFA
Design: single well
Procedure, shortened: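 Single-point screen at 50 µmol/L in CHO-hSGLT1 cells, with 160 µmol/L 1-NBD-glucose in glucose-free DMEM for 90 min at 37°C. Fluorescence from isopropanol extracts was calibrated, and CHO wild-type uptake was subtracted. Data are percent of uptake without compound.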

SMILES	NORMALIZED SGLT1 ACTIVITY (%)
Cl.c1ccc(CC2=NCCN2)cc1	98%
CC(=O)O[C@]1(C(C)=O)CC[C@H]2[C@@H]3C=C(Cl)C4=CC(=O)[C@@H]5C[C@@H]5[C@]4(C)[C@H]3CC[C@@]21C	127%
Cc1cc(OC(=O)c2c(C)cc(O)cc2O)cc(O)c1C(=O)O	93%
Cl.Cl.O=C(O)COCCN1CCN(C(c2ccccc2)c2ccc(Cl)cc2)CC1 (stereo not shown)	141%
CN1C(=O)CC[C@H]1c1cccnc1	84%
N[C@@H]1CONC1=O	67%
CC(=O)OC1CN2CCC1CC2 (stereo not shown)	94%
CC(=O)N[C@@H](Cc1c[nH]c2ccccc12)C(N)=O	93%
N[C@@H](CCC(=O)N[C@@H](CS)C(=O)NCC(=O)O)C(=O)O	92%
CC(C)c1ccc2c(c1)CCC1[C@](C)(CN)CCC[C@]21C.O=S(=O)(O)O (stereo partly shown)	104%
C[C@]12CCC(=O)C=C1CCC1C2CC[C@@]2(C)C1CC[C@@H]2O (stereo partly shown)	98%
O=NN(CCCl)C(=O)NCCCl	156%
CC(=O)O[C@]1(C(C)=O)CCC2C3C[C@H](C)C4=CC(=O)CC[C@]4(C)C3CC[C@@]21C (stereo partly shown)	118%
COc1ccc2c(c1OC)OC[C@@H](c1ccc(OC)c(OC)c1OC)C2	131%
CC(=O)Oc1ccccc1C(=O)O	112%
C=C(C)C1Cc2c(ccc3c(=O)c4c(oc23)COc2cc(OC)c(OC)cc2-4)O1 (stereo not shown)	95%
Cl.O=C(O)CCC1NCC2CC1CN1CCCCC21 (stereo not shown)	120%
C/C1=C\CCC(=O)C2CC(C)(C)C2CC1 (stereo not shown)	93%
CSc1ccc2c(c1)C(N1CCN(C)CC1)Cc1ccccc1S2.O=C(O)/C=C\C(=O)O (stereo not shown)	115%
COc1ccc(-c2c(OC)c3c(OC)c4c(cc3oc2=O)OC(C)(C)C=C4)cc1	68%
CC(=O)Oc1c(-c2ccccc2)oc2c(CC=C(C)C)c3c(c(OC(C)=O)c2c1=O)C=CC(C)(C)O3	128%
CN1CCc2c(c3ccccc3n2Cc2ccccc2)C1.O=S(=O)(O)c1cccc2c(S(=O)(=O)O)cccc12	69%
N=C(N)NOCC[C@H](N)C(=O)O	92%
NC(=O)N1c2ccccc2C=Cc2ccccc21	132%

SMILES	NORMALIZED SGLT1 ACTIVITY (%)
CC(=O)[O][Cd][O]C(C)=O	98%
CC1(C)C2C[C@@H](O)[C@]3(C)C(CC[C@@]4(C)[C@H](c5ccoc5)OC(=O)[C@H]5O[C@]543)[C@@]2(C)[C@@H](O)C[C@H]1O (stereo partly shown)	113%
Oc1cc(O)c2c(c1)O[C@H](c1ccc(O)c(O)c1)[C@@H](O)C2	122%
COC(=O)[C@@H]1OC(=O)C2OC23[C@@]1(C)CCC1[C@]2(C)C(C[C@H](O)[C@]13C)C(C)(C)[C@H](OC(C)=O)C[C@@H]2OC(C)=O (stereo partly shown)	139%
CCCN1C[C@H](CSC)C[C@@H]2c3cccc4[nH]cc(c34)C[C@H]21.CS(=O)(=O)O	72%
Cc1ccc(O)c(C(CCN(C(C)C)C(C)C)c2ccccc2)c1.O=C(O)C(O)C(O)C(=O)O (stereo not shown)	78%
CCN(CC)C(=O)c1cccc(C)c1	95%
CCCCOc1cc(C(=O)NCCN(CC)CC)c2ccccc2n1.Cl	74%
O=C(O)[C@]1(O)C[C@@H](O)[C@@H](O)[C@H](O)C1	86%
N#C/C(=C\c1cccc(O)c1)C(=O)O	112%
CC[C@H](C)[C@H](N)C(=O)N1CCC[C@H]1C(=O)N[C@H](C(=O)O)[C@@H](C)CC	98%
c1ccc2c3c([nH]c2c1)CNCC3	101%
CC12CCC3c4ccc(OCc5ccccc5)cc4CCC3C1C[C@@H](O)[C@@H]2O (stereo partly shown)	140%
CNc1ccc(C(=O)CC(O)CCC(C)C2OC(=O)CC(O)CC(=O)CC(O)CC(O)CC(O)CC(O)CC3(O)CC(O)C(C(=O)OC)C(CC(O[C@@H]4O[C@H](C)[C@@H](O)[C@H](N)[C@@H]4O)/C=C/C=C/C=C/C=C/C=C/C=C/C=C/C2C)O3)cc1 (stereo partly shown)	114%
COc1ccc(-c2cc(=O)c3c(OC)c(OC)c(OC)c(OC)c3o2)cc1OC	210%
CC(C)(OC(=O)c1ccccc1)[C@@H]1Cc2cc3ccc(=O)oc3cc2O1	55%
N[C@@H](Cc1cc(I)c(Oc2cc(I)c(O)c(I)c2)c(I)c1)C(=O)O	256%
C=CCc1ccccc1OCC(O)CNC(C)C.Cl (stereo not shown)	74%
Cc1cc(CC(=O)O)n(C)c1C(=O)c1ccc(Cl)cc1	153%
COc1cc(OC)cc(OC)c1	127%
O=C(Cn1ccnc1[N+](=O)[O-])NCCO	119%
O=C(O)CCCCCCCCCCCC[C@@H]1C=CCC1	178%
O=C(O)CCCOc1ccc(Cl)cc1Cl	352%
COc1cc2c(cc1-c1cc3cc4ccoc4cc3oc1=O)OCO2	84%

SMILES	NORMALIZED SGLT1 ACTIVITY (%)
COc1ccc2c(c1)O[C@@H]1COc3cc(OC)c(OC)cc3[C@@H]1C2=O	255%
Cc1c(OCC(F)(F)F)ccnc1CS(=O)c1nc2ccccc2[nH]1 (stereo not shown)	183%
CC(C)=CCOc1c2occc2cc2ccc(=O)oc12	161%
COc1ccc(C(C)=O)c(OC)c1	145%
COc1ccccc1N1CCNCC1.Cl	129%
Oc1ccnc(S)n1	116%
COc1c2ccoc2c(OC)c2oc(=O)ccc12	116%
C[C@@H]1CC[C@@]2(OC1)O[C@H]1C[C@H]3[C@@H]4CC[C@H]5C[C@@H](O)CC[C@]5(C)[C@H]4CC(=O)[C@]3(C)[C@H]1[C@@H]2C	142%
Cn1c(=O)c2c(ncn2CC(O)CO)n(C)c1=O (stereo not shown)	124%
C[C@]12C=CC(=O)C=C1CC[C@H]1[C@@H]3C[C@@H](O)[C@](O)(C(=O)CO)[C@@]3(C)C[C@H](O)[C@@]12F	115%
CC(C)COCC(CN(Cc1ccccc1)c1ccccc1)N1CCCC1.Cl (stereo not shown)	48%
CC1(C)O[C@@H]2C[C@H]3[C@@H]4CCC5=CC(=O)CC[C@]5(C)[C@@]4(F)[C@@H](O)C[C@]3(C)[C@]2(C(=O)CCl)O1	100%
C[C@@H]1O[C@@H](OC[C@H]2O[C@@H](Oc3c(-c4ccc(OCCO)c(OCCO)c4)oc4cc(OCCO)cc(O)c4c3=O)[C@H](O)[C@@H](O)[C@@H]2O)[C@H](O)[C@H](O)[C@H]1O	99%
C=CC(C1=CC(=O)C(OC)=CC1=O)c1ccc(OC)cc1 (stereo not shown)	123%
CC1=CCc2c(cc3oc(C)cc(=O)c3c2O)OC1	126%
COc1ccc(C(=O)O)c(O)c1OC	102%
CN1C(C(=O)Nc2ccccn2)=C(O)c2ccccc2S1(=O)=O	100%
Cc1cc(C)cc(OCC2CNC(=O)O2)c1 (stereo not shown)	229%
CCCCCC(=O)O[C@]1(C(C)=O)CC[C@H]2[C@@H]3CCC4=CC(=O)CC[C@]4(C)[C@H]3CC[C@@]21C	102%
COc1cccc(OC)c1C(=O)N[C@@H]1C(=O)N2[C@@H]1SC(C)(C)[C@@H]2C(=O)[O-].[Na+]	111%
CC12CCC3C(=CCc4cc(O)ccc43)C1CCC2=O (stereo not shown)	118%
COc1ccc(C(=O)CC(=O)c2ccc(C(C)(C)C)cc2)cc1	104%
C=C[C@@](C)(O)CCC1C(=C)C[C@H](O)C2C(C)(C)CCCC12C (stereo partly shown)	115%
O=c1cc(CO)occ1O	111%

SMILES	NORMALIZED SGLT1 ACTIVITY (%)
C[C@@H]1CC(Cl)CC[C@H]1C(=O)OC(C)(C)C (stereo partly shown)	81%
CCN(CC)CCOCCOC(=O)C1(c2ccccc2)CCCC1.O=C(O)CC(O)(CC(=O)O)C(=O)O	80%
CC(=O)[O][Hg][c]1ccccc1	4%
CC(=O)N[C@@H](CS)C(=O)O	80%
CC(=O)O[C@H]1C[C@@]2(C)[C@@H](C[C@@H](O)[C@H]3[C@@]4(C)CC[C@@H](O)[C@@H](C)[C@@H]4CC[C@@]32C)/C1=C(\CCC=C(C)C)C(=O)O	248%
C[N+]1(C)CCCC(OC(=O)C(O)(c2ccccc2)c2ccccc2)C1.[Br-] (stereo not shown)	90%
Br.COc1c2c(cc3c1OCO3)CCN(C)C2	126%
Cl.NCC(=O)CCC(=O)O	83%
CCOC(=O)c1c(C)cc(O)c(C=O)c1O	347%
C[C@H](N)[C@H](O)c1ccc(O)c(O)c1	122%
CC[N+](CC)(CC)CCOc1cccc(OCC[N+](CC)(CC)CC)c1OCC[N+](CC)(CC)CC.[I-].[I-].[I-]	91%
COc1cc(O)c2c(=O)cc(C)oc2c1CC=C(C)C	158%
CC(C)C[C@H](N)C(=O)N[C@@H](C)C(=O)O (H-Leu-Ala-OH)	120%
CC1(C)S[C@@H]2[C@H](NC(=O)C(C(=O)[O-])c3ccccc3)C(=O)N2[C@H]1C(=O)[O-].[Na+].[Na+] (stereo partly shown)	112%
NC(=O)c1ncn([C@@H]2O[C@H](CO)[C@@H](O)[C@H]2O)n1	97%
Cl.NC12CC3CC(CC(C3)C1)C2	65%
COc1cc(O)cc(/C=C/c2ccccc2)c1	494%
CN1C2CC3C[C@H]1C(O3)C2O (stereo partly shown)	84%
NC[C@@H]1O[C@H](O[C@@H]2[C@@H](CO)OC(O[C@@H]3[C@@H](O)[C@H](N)C[C@H](N)[C@H]3OC3O[C@H](CN)[C@@H](O)[C@H](O)[C@H]3N)[C@@H]2O)[C@H](N)[C@@H](O)[C@@H]1O.O=S(=O)(O)O (stereo partly shown)	102%
CNC(C)C(O)c1ccccc1.Cl (stereo not shown)	124%
Cl.Fc1ccc([C@@H]2CCNC[C@H]2COc2ccc3c(c2)OCO3)cc1	132%
CC1CC[C@]2(NC1)O[C@H]1CC3C4CC[C@H]5C[C@@H](O)CC[C@]5(C)C4CC[C@]3(C)[C@H]1[C@@H]2C.Cl (stereo partly shown)	96%
